# Results published in PubChem BioAssay AID1508624 (National Center for Advancing Translational Sciences (NCATS), 2021).
# Among all 48,000 compounds or so, about 120 (0.25%) were called active. Inconclusive results (about 4%) are left out. Calls come from the whole dose curve; as a rule, active = well fitted activation curve with a large enough effect; inconclusive = small, poorly fitted or top-dose-only effect, or another doubt; inactive = no such curve, though single readings can be large or run the other way. The list shows a part of the results.
# Assay: Primary qHTS for Identification of Small Molecule Activators of Huntingtin-Antisense Promoter Activity; note: nearly all actives have a fitted effect of over 55% in size
# Settings: HEK293 HTT-AS promoter firefly luciferase reporter (activity 0% = vehicle and -100% = no light), 24 h; series mostly up to 57.5 µM; activity change, positive = activation: at the top concentration
# Procedure, shortened: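 HEK293 luciferase promoter-reporter cells (2,500/well) plated 24 h, then compounds added at up to 57.5 uM final for 24 h at 37 °C. Firefly luminescence by Dual-Glo, normalized to vehicle (0%) and zero RLU (-100%).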
row,Structure (SMILES),"activity change, positive = activation"
1,Cc1cc(C)cc(NC(=O)C2CC(=O)N(c3ccccc3)C2)c1 (stereo not drawn),inactive: 9.9%
2,O=C(Nc1sc2c(c1C(=O)NCC1CCCO1)CCCC2)c1cc(=O)c2ccccc2o1 (stereo not drawn),inactive: 2.02%
3,O=C(CCn1c(=O)c2sccc2n(Cc2ccc(F)cc2Cl)c1=O)NCc1ccc2c(c1)OCO2,inactive: -2.96%
4,Cc1ccc(-c2nc3ccccc3o2)cc1NC(=O)Cc1ccc(Cl)cc1,inactive: -0.133%
5,COc1cc2c(cc1Cc1cccc(Cl)c1F)c(=O)c(C(=O)O)cn2[C@H](CO)C(C)C,inactive: -30.6%
6,Cc1cccc(-c2nc(CN3CCCC(C(=O)NCCc4ccc(Cl)cc4)C3)c(C)o2)c1 (stereo not drawn),inactive: -46.4%
7,COC(=O)c1ccccc1NC(=O)CSc1nc(C)c(Cl)c(C)c1C#N,inactive: 3.8%
8,Cc1ccc(-c2cc(C(=O)Oc3ccc(C#N)cc3)no2)cc1C,inactive: 18.2%
9,CCCCCCCCCCOCC(O)CN (stereo not drawn),inactive: -11.8%
10,Cc1ccc2c(c1)c1c(c(=O)n(Cc3ccccc3)c(=O)n1CC(=O)Nc1ccccc1F)n2C,inactive: -5.22%
11,Cc1cc(-c2ccc(C)c(S(=O)(=O)NCC3CCN(Cc4ccccc4F)CC3)c2)on1,inactive: -7.83%
12,O=C(Cn1ncc2c3ccccc3n(Cc3ccc(F)cc3)c2c1=O)NCc1ccccn1,inactive: -17.7%
13,Cc1ccc(SCC(=O)Nc2ccc3oc(-c4cccc(Cl)c4)nc3c2)cc1,inactive: 6.88%
14,O=C(NCc1ccccc1)C(=O)Nc1c2c(nn1-c1ccccc1)CSC2,inactive: -53.3%
15,COc1ccc(OC)c(CNCc2c(C(=O)O)n(Cc3cccc(F)c3)c3cc(OC)ccc23)c1,inactive: -30%
16,Cc1ccc(C(c2c(O)cc(C)n(Cc3ccco3)c2=O)N2CCC(C)CC2)cc1 (stereo not drawn),inactive: 9.32%
17,COc1ccc2c(c1)c1c(c(=O)n(-c3cccc(C)c3)c(=O)n1Cc1cccc(Cl)c1)n2C,inactive: -20.8%
18,O=C(c1cc2c(=O)oc3ccccc3c2s1)N1CCN(c2ccccc2)CC1,inactive: 2.96%
19,Cc1ccc(-n2nc(C)c3c(C)cc(=O)n(CC(=O)Nc4cccc(C)c4C)c32)cc1,inactive: -14.9%
20,O=C(Nc1cc2c(cc1C(=O)c1ccccc1Br)OCCO2)c1cccc(Cl)c1,inactive: -3.35%
21,COc1ccccc1CNc1ncnc2c1cnn2-c1ccc(C)cc1,inactive: -33.9%
22,CC1(C)OC2=C(C(=O)c3ccccc3C2=O)[C@H](NCc2ccccc2)[C@H]1O,inactive: -92.6%
23,COc1ccc(-c2nn(-c3ccccc3)cc2C2NC(=O)NC(C)=C2C(=O)OC(C)C)cc1OC (stereo not drawn),inactive: -11.3%
24,Cc1ccc(-c2noc(-c3nnn(-c4cccc(C(F)(F)F)c4)c3N)n2)cc1,inactive: -1.74%

row,Structure (SMILES),"activity change, positive = activation"
1,COc1ccc(N2C(=O)CSC23C(=O)N(Cc2cccc(F)c2)c2ccccc23)cc1Cl (stereo not drawn),inactive: -37.6%
2,O=S(=O)(c1ccc2nc(N3CCN(c4ccccc4F)CC3)ccc2c1)N1CCCCC1,inactive: -20.6%
3,COCCNC(=O)CCCn1c(SCC(=O)NCc2ccc(C)cc2)nc2c(sc3ccccc32)c1=O,inactive: -1.38%
4,CCC(C)NC(=O)c1sc2nc(C)c(C(=O)Nc3ccc(C)cc3C)c(-c3ccc(NC(C)=O)cc3)c2c1N (stereo not drawn),inactive: -20.5%
5,O=C(O)c1ccc(Cn2c(SCc3ccc(F)cc3)nc3ccncc32)cc1,inactive: 0.121%
6,COCCNc1ccc2cc(S(=O)(=O)N3CCCCC3)ccc2n1,inactive: -9.89%
7,Cc1ccc2nc(NC(=O)CSc3nccn3Cc3ccc(F)cc3)sc2c1,inactive: -12.9%
8,CCc1ccc(NS(=O)(=O)c2[nH]ncc2C(=O)OC)cc1,inactive: -6.66%
9,Cc1ccccc1Cn1c(=O)n(-c2ccc(Cl)cc2)c(=O)c2c3c(sc21)CCCC3,inactive: -4.27%
10,CC(C)NC(=O)CN1C(=O)CCn2nc(-c3cn(C)c4ccccc34)cc21,inactive: 4.33%
11,COc1ccc(Cn2c(C(=O)O)c(CNCc3ccc(SC)cc3)c3ccc(OC)cc32)cc1,inactive: -57.9%
12,COc1ccc(OC)c(S(=O)(=O)NCC(c2cccs2)S(=O)(=O)c2ccc(F)cc2)c1 (stereo not drawn),inactive: -32.7%
13,Cc1ccccc1NC(=O)c1sc2nc3c(cc2c1N)CN(Cc1ccccc1)CC3,inactive: -29.3%
14,CCCS(=O)(=O)N1CCC(C(=O)NCCOC)CC1,inactive: -10.3%
15,Cc1cc(F)ccc1NC(=O)C1CCC(CNS(=O)(=O)c2ccc3c(c2)CCCC(=O)N3)CC1 (stereo not drawn),inactive: -29.4%
16,COc1cccc(N2CCN(C(=O)CN3CCSc4ccccc43)CC2)c1,inactive: -30.3%
17,Clc1ccc(Nc2c(-c3ccccc3Cl)nc3ccc(Cl)cn23)cc1,inactive: -39.3%
18,COc1ccc(C)cc1NC(=O)c1cc(S(=O)(=O)N2CCN(c3cccc(C)c3C)CC2)ccc1F,inactive: -8.03%
19,Cc1c(C(=O)Nc2ccccc2Cl)oc2ccc(S(=O)(=O)N3CCCCC3)cc12,inactive: -1.36%
20,CCCn1c2ccc(F)cc2c2nnc(SCCN(CC)CC)nc21,inactive: -19.3%
21,Cc1ccc(C(=O)Nc2cccc(C(=O)OCc3cc(=O)n4nc(C5CC5)sc4n3)c2)cc1,inactive: 18.6%
22,CCCOc1ccc(C2CC(=O)Nc3c2c(=O)n(C)c(=O)n3C)cc1OC (stereo not drawn),inactive: -11.7%
23,CCOc1ccc(N2CC(NC(=O)C3CC3)CC2=O)cc1 (stereo not drawn),inactive: -15.5%
24,COc1ccc(-n2nc(C(=O)NCc3ccc(F)cc3Cl)c3c4ccccc4n(C)c3c2=O)cc1Cl,inactive: -3.79%
